{"source": "PubChem BioAssay AID1240", "about": "(Sanford-Burnham Center for Chemical Genomics, 2008)", "note": "In all, about 50,000 compounds went through this assay and about 800 (1.6%) showed an effect of 50% or more. Some of the results follow."}
{"molecular_target": "Bcl-2-like protein 10 (Homo sapiens) (UniProt Q9HD36)", "sequence (Q9HD36 whole entry, looked up)": "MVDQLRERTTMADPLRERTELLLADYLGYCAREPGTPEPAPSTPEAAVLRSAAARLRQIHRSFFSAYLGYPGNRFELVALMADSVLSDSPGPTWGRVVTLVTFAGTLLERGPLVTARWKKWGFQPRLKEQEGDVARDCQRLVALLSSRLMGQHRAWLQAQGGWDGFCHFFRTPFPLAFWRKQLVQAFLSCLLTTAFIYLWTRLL", "experiment": "Phenotype converters, Bcl-B/TR3 peptide binding displacement, primary biochemical FP (AID 1240);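 further: 0% = Bcl-B with tracer peptide and DMSO and 100% = tracer peptide lacking Bcl-B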", "conditions": "GST-Bcl-B / FITC-TR3 peptide fluorescence polarization; stronger effect = higher value; compound at 3.75 mg/L", "units": {"displacement": "%"}}
{"smiles": "C=CCNC(=O)/C(=C\\c1ccccc1)NC(=O)c1ccc(Cl)cc1Cl", "displacement": -2}
{"smiles": "O=C(O)c1ccc(N/C(=N\\S(=O)(=O)c2ccccc2)c2ccccc2)cc1", "displacement": 10}
{"smiles": "COc1ccc(NC(=O)c2c(NC(=O)C(C)(C)C)sc3c2CCC(C)C3)cc1", "note": "(stereo not drawn)", "displacement": 3.3}
{"smiles": "Cc1cc(C(=O)N=Nc2c(O)n(C)c3ccc(Br)cc23)n[nH]1", "displacement": -13.8}
{"smiles": "O=C(/C=C/c1ccc(OC(=O)c2cccnc2)cc1)c1ccccc1", "displacement": -5.7}
{"smiles": "CCOC(=O)C(C(=O)Nc1ncccn1)C1CCCCC1", "note": "(stereo not drawn)", "displacement": -17.7}
{"smiles": "CCCOc1c(Cl)cc(/C=C2/SC(=S)NC2=O)cc1OC", "displacement": -1.9}
{"smiles": "CCCN1CCC(=NNC(=O)Cc2ccc(OC)cc2)CC1", "displacement": 3.7}
{"smiles": "COc1cc(/C=N/NC(=O)CCc2cc(C(C)(C)C)c(O)c(C(C)(C)C)c2)cc(Br)c1O", "displacement": 12.6}
{"smiles": "COc1cccc(OC)c1C(=O)ON1C(=O)c2ccccc2C1=O", "displacement": 1.3}
{"smiles": "O=C(CCC1CCCC1)Nc1ccc(F)c(F)c1", "displacement": -7.2}
{"smiles": "CCOC(=O)C1=C(c2ccccc2)N=c2s/c(=C\\c3cccnc3)c(=O)n2C1c1ccc2c(c1)OCO2", "note": "(stereo not drawn)", "displacement": -7.3}
{"smiles": "CCc1ccc(N2CC(C(=O)Nc3cc(C)cc(C)c3)CC2=O)cc1", "note": "(stereo not drawn)", "displacement": -1.8}
{"smiles": "CCN(CC)Cc1cc(NC2=NS(=O)(=O)c3ccccc32)ccc1O", "displacement": -1.2}
{"smiles": "O=[N+]([O-])c1c(Cl)cc(O)c2c1C1C=CCC1C(c1ccc(Br)cc1)N2", "note": "(stereo not drawn)", "displacement": 43.8}
{"smiles": "CCCOc1c(Br)cc(C2C3=C(CC(C)(C)CC3=O)OC3=C2C(=O)CC(C)(C)C3)cc1OC", "displacement": 6}
{"smiles": "COC(=O)c1cccc(NC(=O)COc2c(C)cccc2C)c1", "displacement": -1.9}
{"smiles": "O=C(NCCCNC(=O)Nc1ccccc1)Nc1ccccc1", "displacement": -5}
{"smiles": "Cc1cc(=O)[nH]c(SCCOc2ccc(C)c(C)c2)n1", "displacement": 19.7}
{"smiles": "CC(C)(C)C1CCc2c(sc(NC(=O)C3CC3c3ccccc3)c2C(N)=O)C1", "note": "(stereo not drawn)", "displacement": 5.6}
{"smiles": "CC(=O)CCc1oc2ccc(NC(C)=O)cc2c1-c1ccc(C)o1", "displacement": -4.2}
{"smiles": "Cc1ccc(S(=O)(=O)Nc2cccc3ccc[n+](C)c23)cc1", "displacement": 8.8}
{"smiles": "Cc1ccc(OCCOCCN2CCN(C)CC2)cc1C", "displacement": -17.2}
{"smiles": "COc1ccc(-n2c(SCC(=O)c3ccc(Br)cc3)nc3ccccc3c2=O)cc1", "displacement": -5}
{"smiles": "CCN(CC)c1ccc(NC(=O)/C=C/c2ccc(OC)c(Br)c2)cc1", "displacement": 12.6}
{"smiles": "C=CCN1C(=O)/C(=C\\c2cn(C)c3ccccc23)SC1=S", "displacement": -0.6}
{"smiles": "N#C/C(=C\\c1ccc(-c2cccc([N+](=O)[O-])c2)o1)C(=O)N1CCOCC1", "displacement": -3.5}
{"smiles": "CCOc1ccccc1/C=N/N1CCN(Cc2ccc(Cl)cc2)CC1", "displacement": -7.4}
{"smiles": "CC(C)CC(=O)N1CCN(Cc2cccnc2)CC1", "displacement": -8.1}
{"smiles": "Cc1ccc(CCC(=O)Nc2ncc(Cc3ccc(F)cc3)s2)o1", "displacement": 11.1}
{"smiles": "CCOc1cc(OCC)cc(C(=O)Nc2ccc(C)cc2)c1", "displacement": 12.8}
{"smiles": "O=C(Nc1ccccc1C(=O)O)c1ccc2c(c1)C(=O)N(c1ccc(Br)cc1)C2=O", "displacement": 17.2}
{"smiles": "O=C(Cc1ccccc1)NN=C1CCCC1", "displacement": -12.2}
{"smiles": "COc1ccc(NC(=O)c2cc(-c3ccccc3Cl)nc3ccccc23)c(OC)c1", "displacement": 8.7}
{"smiles": "NC(=O)c1c(N)sc2c1CCCCCCCCCC2", "displacement": -8.6}
{"smiles": "CCOC(=O)C1=C(O)CSC1=Nc1ccc(Cl)cc1", "displacement": -6.7}
{"smiles": "O=C(Nc1cccc(Cl)c1Cl)c1cnccn1", "displacement": -2.7}
{"smiles": "CC12CC3CC(C)(C1)CC(CNC(=O)Nc1ccccc1)(C3)C2", "displacement": 12.7}
{"smiles": "Cc1ccc2[nH]c(SCc3ccccc3F)nc2c1C", "displacement": -5.6}
{"smiles": "O=C(CSc1nnc(-c2ccncc2)n1-c1ccccc1)c1ccc(NS(=O)(=O)c2ccccc2)cc1", "displacement": 9.8}
{"smiles": "O=C1c2cccc3cccc(c23)C(=O)N1CC1CCN(S(=O)(=O)c2cccc3cccnc23)CC1", "displacement": 12.6}
{"smiles": "COc1ccc(/C(C)=N/OCC(=O)Nc2cccc(C(F)(F)F)c2)cc1OC", "displacement": -6.6}
{"smiles": "Cc1cccc(NC(=O)c2ccc(S(=O)(=O)N3CCCC3)cc2)c1", "displacement": -10.3}
{"smiles": "CCCc1cnc(-c2ccc(F)cc2)nc1", "displacement": -6.8}
{"smiles": "CN(C)c1ccc(-c2nc3cc(NC(=S)NC(=O)c4ccco4)ccc3o2)cc1", "displacement": 18.3}
{"smiles": "O=C(C1CC2CCC1C2)N1CCN(c2ccc([N+](=O)[O-])cc2)CC1", "note": "(stereo not drawn)", "displacement": 2.1}
{"smiles": "CC1CC(=O)Nc2cc([N+](=O)[O-])ccc2N1", "note": "(stereo not drawn)", "displacement": -3}
{"smiles": "O=c1ccc(=O)n(CN2CCOCC2)[nH]1", "displacement": 0.1}
{"smiles": "COc1ccc2c(c1OC)C(=O)OC2CC(=O)c1ccc(O)c(I)c1", "note": "(stereo not drawn)", "displacement": -1.5}
{"smiles": "O=C1CC(c2ccccc2)CC2=C1C(c1ccc(Cl)cc1Cl)Nc1ccccc1N2", "note": "(stereo not drawn)", "displacement": 8.6}
{"smiles": "COc1cccc(OCCCOc2c(C)cccc2C)c1", "displacement": -12.3}
{"smiles": "CCOC(=O)C1=C(C)NC2=C(C(=O)CCC2)C1c1ccc(OCc2ccc(Cl)cc2)c(OC)c1", "note": "(stereo not drawn)", "displacement": -13.8}
{"smiles": "COc1ccccc1C(=O)Nc1ccc2ccccc2c1", "displacement": -5.1}
{"smiles": "CCOC(=O)C1=C(C)NC(=S)NC1c1c(OC)ccc2ccc(OC)cc12", "note": "(stereo not drawn)", "displacement": 0.9}
{"smiles": "O=C(Nc1cccc([N+](=O)[O-])c1)c1ccccc1C(F)(F)F", "displacement": -3.8}
{"smiles": "O=C(Nc1ccc(S(=O)(=O)Nc2ncccn2)cc1)c1ccc([N+](=O)[O-])cc1", "displacement": 3.7}
{"smiles": "COc1cc(NC(=O)C2CCCCC2)c(OC)cc1Cl", "displacement": -4.7}
{"smiles": "O=C(Nc1ccccc1C(=O)NC(Cc1ccc(O)cc1)C(=O)O)c1ccccc1", "note": "(stereo not drawn)", "displacement": -11.6}
{"smiles": "COc1ccc(C)cc1NC(=O)/C=C/c1ccccc1", "displacement": -10.2}
{"smiles": "COc1cc(CN2CCN(Cc3ccncc3)CC2)cc(OC)c1O", "displacement": -1.5}
{"smiles": "O=C(O)/C=C/C(=O)Nc1ccc(Oc2cccc(Oc3ccc(NC(=O)/C=C/C(=O)O)cc3)c2)cc1", "displacement": 23.7}
{"smiles": "CC(C)C(C(=O)O)N1C(=O)/C(=C/c2ccc(N(C)C)cc2)SC1=S", "note": "(stereo not drawn)", "displacement": -103}
{"smiles": "O=C(COc1cccc([N+](=O)[O-])c1)Nc1cccc(-c2nc3ccccc3[nH]2)c1", "displacement": 1.8}
{"smiles": "CCOC(=O)C1=C(O)/C(=C/c2ccc([N+](=O)[O-])cc2)SC1=Nc1cccc(Cl)c1", "displacement": 3.2}
{"smiles": "COC(=O)C1=CN(Cc2ccc(OC)cc2)C=C(C(=O)OC)C1c1ccsc1", "displacement": -0.6}
{"smiles": "Cc1ccc(NC(=O)CCC(=O)O)c(C)c1", "displacement": 14.4}
{"smiles": "CC(=O)N/N=C/c1cc(C)n(-c2cc(Cl)cc(Cl)c2)c1C", "displacement": -6.6}
{"smiles": "COc1ccc(CCNC(=O)COc2ccccc2[N+](=O)[O-])cc1OC", "displacement": 12.9}
{"smiles": "CC(=O)N(C1=C(N2CCOCC2)C(=O)c2ccccc2C1=O)C(C)C", "displacement": 6.6}
{"smiles": "O=C(N/N=C/c1cc(Br)ccc1O)c1cc(C2CC2)[nH]n1", "displacement": -21.3}
{"smiles": "CCOc1ccc(NC(=O)c2ccc(-c3ccc(Cl)cc3)o2)cc1", "displacement": -6}
{"smiles": "COc1ccc(NC2=CC(=O)CC(C)(C)C2)c(OC)c1", "displacement": 7.4}
{"smiles": "Cc1cc(C)c(C(=O)/C(=C/c2ccc(Cl)cc2)c2ccccc2)c(=O)[nH]1", "displacement": -8.7}
{"smiles": "CCOc1ccccc1NC(=O)c1c(NC(=O)c2ccccc2Cl)sc2c1CCCCC2", "displacement": -1.1}
{"smiles": "Cc1ccc(NCc2cccnc2)cc1C", "displacement": 6.9}
{"smiles": "CCCCOc1ccc(NC2=NC3(CCCC3)N=C(N)N2)cc1", "displacement": -2.2}
{"smiles": "Cc1ccccc1NCC(=O)N/N=C\\c1cc([N+](=O)[O-])cc(Br)c1O", "displacement": -4.4}
{"smiles": "COc1cc(Br)c(/C=N/Nc2ccc(Br)cc2)cc1OC", "displacement": -4.1}
{"smiles": "COc1ccc(NC2=C(Cl)C(=O)N(c3ccc(C)cc3C)C2=O)cc1", "displacement": -3.2}
{"smiles": "C#CCOc1cc(Br)c(/C=C2\\C(=O)NC(=O)N(c3ccc(C)cc3)C2=O)cc1OC", "displacement": -20.6}
{"smiles": "C(=N\\Nc1ccc2ccccc2n1)/c1ccc(OCc2ccccc2)cc1", "displacement": -15}
{"smiles": "COc1ccc(CCNC(=O)C(=O)Nc2cc(Cl)ccc2C)cc1", "displacement": -12.3}
{"smiles": "CSc1nc(-c2ccccc2F)c(C#N)c(=O)n1C", "displacement": -3}
{"smiles": "Cc1cc(Cl)ccc1OCC(=O)Nc1ccccc1C(N)=O", "displacement": 1.8}
{"smiles": "Cc1ccc2ncnc(Nc3ccccc3Cl)c2c1", "displacement": 7.3}
{"smiles": "COc1ccccc1N1CCN(C(=S)Nc2ccccc2)CC1", "displacement": -3.4}
{"smiles": "O=C1S/C(=C/c2cc([N+](=O)[O-])ccc2O)C(=O)N1c1ccccc1", "displacement": 7}
{"smiles": "N#C/C(=C\\c1ccc(-c2cccc(Cl)c2)o1)c1ccc(Cl)cc1", "displacement": -3.8}
{"smiles": "Cc1ccc2nc(N/N=C/c3ccc4ncccc4c3)nc(-c3ccccc3)c2c1", "displacement": -10.4}
{"smiles": "CN(C)c1ccc(C2Nc3ccc(C(=O)c4ccccc4)cc3NC3=C2C(=O)CCC3)cc1", "note": "(stereo not drawn)", "displacement": -4.5}
{"smiles": "O=C(Nc1nc(-c2cccs2)cs1)c1ccc(S(=O)(=O)N2CCCCC2)cc1", "displacement": -20.1}
{"smiles": "O=c1c2c3c(sc2[nH]c(=S)n1-c1ccccc1)CCCC3", "displacement": -4}
{"smiles": "C=CCN1C(=O)/C(=C/c2ccc(O)c(OC)c2)S/C1=N\\S(=O)(=O)c1ccc([N+](=O)[O-])cc1", "displacement": 0.9}
{"smiles": "CSc1ccc(Cl)c(C(=O)NCc2ccco2)c1", "displacement": -51.8}
{"smiles": "CCn1c(SCC(=O)c2ccc(Cl)cc2)nc2ccccc2c1=O", "displacement": -5}
{"smiles": "COc1ccc(OCC(=O)NNC(=O)C2COc3ccccc3O2)cc1", "note": "(stereo not drawn)", "displacement": 1.5}
{"smiles": "N#CC(C#N)=Cc1ccc(-c2ccc3c(c2)COC3=O)o1", "displacement": 109}
{"smiles": "COC(=O)C1=C(C)NC2=C(C(=O)CC(c3ccc(OC)c(OC)c3)C2)C1c1ccc(OC)c(OC)c1", "note": "(stereo not drawn)", "displacement": 8.6}
{"smiles": "COc1ccc(C(=O)Nc2c(C)ccc3nsnc23)cc1", "displacement": 11.2}
{"smiles": "NNC(=O)c1cc(=O)[nH]c2ccccc12", "displacement": -8}
{"smiles": "COc1ccc(/C(O)=C2/C(=O)C(=O)N(CCCCCC(=O)O)C2c2ccc(OC)c(OC)c2)cc1", "note": "(stereo not drawn)", "displacement": 2.7}
{"smiles": "CCN(CC)c1nc2n(c(=O)n1)CCO2", "displacement": -1.2}
{"smiles": "Cc1ccc(Cl)cc1NC(=O)C1CC(=O)N(c2ccc(Br)cc2)C1", "note": "(stereo not drawn)", "displacement": -1.5}
{"smiles": "NS(=O)(=O)c1ccc(NC(=O)C23CC4CC(CC(C4)C2)C3)cc1", "displacement": 1.4}
{"smiles": "Cc1nn(-c2ccccc2)c(C)c1/C=N/NC(=O)c1cc(C23CC4CC(CC(C4)C2)C3)[nH]n1", "displacement": -3.3}
{"smiles": "C=CCN1C(=O)/C(=C/c2c(NC)nc3ccccn3c2=O)SC1=S", "displacement": 5.8}
{"smiles": "COc1ccccc1NC(=O)CC1S/C(=N\\N=C\\c2ccc(C)o2)NC1=O", "note": "(stereo not drawn)", "displacement": -8.7}
{"smiles": "O=C(O)C1C2CCC(C2)C1C(=O)Nc1nc(-c2ccc(Cl)cc2Cl)cs1", "note": "(stereo not drawn)", "displacement": -8.5}
